Laboratory results from PMC10501182 (Protein & Cell, 2023).

Legend:
INTS9 = target: T1, INTS9 (human, UniProt Q9NV88); assay: cryo-EM structure; INTAC-PEC assembled from purified human INTAC, NELF, DSIF, S. scrofa Pol II and a DNA-RNA scaffold; gradient fixation (GraFix); map at 4.2 Å, subcomplexes at 3.5-3.8 Å by focused refinement; earlier structures of INTAC and PEC fitted into the maps; conditions: both partners purified
T1 construct: Integrator complex subunit 9 (INTS9), human; source: subunit of purified human INTAC (Zheng et al., 2020)

SPT5 = SPT5 (human, UniProt O00267); assay: as above; conditions: both partners purified

- binding result (INTS9): binds
- binding result (SPT5): binds
B1: INTS11 (enzyme)
chain: not shown
notes: Integrator complex subunit 11 (INTS11), human; RNA endonuclease; source: subunit of purified human INTAC (Zheng et al., 2020)
